Several values for one entry are separate records, joined by “and”; a condition that tells them apart may be missing. Identical values can stand only once.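 Results reflect a 48-hour exposure of cells in 96-well plates to compound at five concentrations. GI50 marks 50% less growth. TGI marks complete inhibition of growth.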
system: NCI-H322M lung; experiment: DTP human tumour cell line panel, 48 h

Row | Compound | TGI | GI50
1 | CCN(CC)CCCNc1ccc2nc(C)n3c4ccc(O)cc4c(=O)c1c23 | 17 µM | –
2 | O=C(Nc1cc(C(F)(F)F)ccc1Cl)c1ccc(NC2=C(Cl)C(=O)N(Cc3ccccc3)C2=O)cc1 | 58.6 µM | 18.4 µM
3 | CS(=O)(=O)OCCN(CCOS(C)(=O)=O)c1ccc(C=Nc2cccc(Cl)c2)cc1 | 33.6 µM | –
4 | COc1cc2nc(SCc3cc(OC)c(OC)c(OC)c3)n(Cc3ccccc3)c(=O)c2cc1OC | > 100 µM | 7.3 µM
5 | Cn1c(-c2c(N)n(Nc3cccc(Cl)c3)c3nc(C#N)c(C#N)nc23)nc2ccccc21 | 20.4 µM | 9.62 µM
6 | COC12CCC(=O)C=C1c1ccccc1N2C(C)=O (centres undefined) | > 100 µM | –
7 | COC(=O)C1Cc2cc3c(cc2C1=O)CCCC3 (centres undefined) | > 100 µM | –
8 | CC(C)CCC[C@@H](C)[C@H]1CC[C@H]2[C@@H]3CC[C@H]4C[C@@H](CCC=C(c5cc(Cl)c(O)c(C(=O)O)c5)c5cc(Cl)c(O)c(C(=O)O)c5)CC[C@]4(C)[C@H]3CC[C@]12C | > 100 µM | –
9 | Nc1nc(Cl)c(N)c(NCC2(CO)CC2)n1 | > 100 µM | –
10 | O=C(OC1C2OC(=O)c3cc(O)c(O)c(O)c3Oc3cc4c(c(O)c3O)-c3c(cc(O)c(O)c3O)C(=O)OCC3OC(O)C(OC(=O)c5cc(O)c(O)c(O)c5Oc5cc6c(c(O)c5O)-c5c(cc(O)c(O)c5O)C(=O)OC1C(COC6=O)OC2O)C(OC(=O)c1cc(O)c(O)c(O)c1)C3OC4=O)c1cc(O)c(O)c(O)c1 (centres undefined) | 58.8 µM | –
11 | OC1(c2ccc(-c3ccccc3)cc2)c2ccccc2C2=NCCN21 (centres undefined) | > 100 µM | –
12 | Cc1nc(-c2ccccc2)n2nc(NCCCN3CCOCC3)ncc12 | > 25 µM | 9.48 µM
13 | Cc1c2c3ccccc3nc-2n(C)c2ccccc12 | 4.97 µM | –
14 | CCCCCCCCCCCCCCCCNC(=O)C(=O)/C=C(\O)c1ccc(C)cc1 | > 10 µM | –
15 | CC1=CC(=O)CC2(C)CC[C@@H]3C[C@]12OC3(C)C (some centres undefined) | > 100 µM | –
16 | O=C1c2cc(Cl)ccc2NC(=NC2CCCC2)C2CSCN12 (centres undefined) | > 100 µM | –
17 | O=c1/c(=C/c2ccccc2[N+](=O)[O-])sc2nc3ccccc3n12 | > 46.4 µM | –
18 | CCC(O)c1ccc(Br)cc1NC(=O)c1cccc(Cl)c1 (centres undefined) | 55.6 µM | 22.5 µM
19 | CN(C)c1ccc(C=NCC2CCCN3CCCCC23)cc1 (centres undefined) | > 100 µM | –
20 | O=C1C(Br)=C(c2ccccc2)O/C1=C/C(=O)c1ccc(Br)cc1 | > 100 µM | –
21 | CC1/C=C/[C@@]2(C)CCC(C(C)(C)O)C2C(O)C[C@](C)(O)/C=C/C1 (some centres undefined) | > 100 µM | –
22 | CN(Cc1cnc2nc(N)nc(N)c2n1)c1ccc(C(=O)N[C@@H](CCC(=O)O)C(=O)O)cc1 | > 250 µM | –
23 | CCOc1ccc2[nH]c3c(C)c4ccncc4c(C)c3c2c1 | 2.43 µM | –
24 | OCc1ccc(N2CCc3cccc(F)c3C2)cc1Cl | 7.62 µM | 1.39 µM

Row | Compound | TGI | GI50
25 | Cc1c2ccncc2cc2c1[nH]c1ccccc12 | 46.2 µM | –
26 | c1ccc(C(NCC2CCO2)(c2ccccc2)c2ccccc2)cc1 (centres undefined) | 32.5 µM | –
27 | c1ccc2c(c1)c1c(n2CCOCCN2CCCC2)CCCC1 | > 100 µM | –
28 | Cc1nc(N)nc2c1CCC(O)S2 (centres undefined) | 38.5 µM | 12.7 µM
29 | Cc1ccccc1NC(=O)c1cc(-c2ccc([N+](=O)[O-])cc2)nc(=S)[nH]1 | > 100 µM | –
30 | COc1ccc(OC)c(NC(=O)CCC/C(CC(=O)c2ccc(O)c(OC)c2)=N\Nc2nnc(C)n2N)c1 | > 100 µM | –
31 | COc1c(/C=C/C(C)(C)O)cc(C2CC(=O)c3c(O)cc(O)cc3O2)cc1CC=C(C)C (centres undefined) | 15.9 µM | –
32 | CCC(=O)c1c(NOC2OCC(OC(C)=O)C(OC(C)=O)C2OC(C)=O)nc(OC)n(C)c1=O (centres undefined) | > 100 µM | –
33 | Cc1ncc(C(=O)Nc2ccc(CN3CCN(C)CC3)c(C(F)(F)F)c2)cc1C#Cc1cnc2cccnn12 | 3.14 µM | 0.6 µM
34 | S=c1snc2n1CCN2 | > 100 µM | > 100 µM
35 | COC(=O)CCC1=C(CC(=O)OC)C(C)(OC)N=C1NC(=O)OCc1ccccc1 (centres undefined) | > 100 µM | –
36 | CN(C)c1ccc(/C=C2\N=C(NNc3ccccc3)NC2=O)cc1 | > 100 µM | –
37 | Cc1nn[n-]n1.N.N.N.N.N.[Cl-].[Co+3] | > 100 µM | > 100 µM
38 | Cc1cnc2sn(-c3ccc([N+](=O)[O-])cc3)c(=O)c2c1 | > 100 µM | –
39 | O=C(/C=C/c1cccc(Oc2ccccc2)c1)NCc1ccc(C(=O)NCc2ccccc2)cc1 | > 100 µM | –
40 | Cn1c2ccccc2c2c3c(c4c5ccccc5n(C)c4c21)C(=O)NC3=O | > 100 µM | –
41 | C#C/C=C\CCCC/C=C\C#CC#CCCCC#CC#C[C@H](COS(=O)(=O)O)OS(=O)(=O)O | > 100 µM | –
42 | C#Cc1cccc(N2C(=O)c3c(c(-c4ccccc4)c(-c4ccc(Cc5ccc(-c6c(-c7ccccc7)c7c(c(-c8ccccc8)c6-c6ccccc6)C(=O)N(c6cccc(C#C)c6)C7=O)cc5)cc4)c(-c4ccccc4)c3-c3ccccc3)C2=O)c1 | > 100 µM | –
43 | O=C(c1nc2ccc([N+](=O)[O-])cc2[nH]c1=O)C(O)c1ccc2c(c1)OCO2 (centres undefined) | > 100 µM | –
44 | O=c1c2cc(F)ccc2sc2c(N3CCNCC3)nc3ccc(F)cc3c12 | 2.95 µM | 1.59 µM
45 | O=C1/C(=C\c2cccc(Oc3ccccc3)c2)SC(c2ccccc2)N1c1ccccc1 (centres undefined) | > 100 µM | –
46 | CN(C)CCNc1ccc(CO)c2sc3ccc(O)cc3c(=O)c12 | 14.9 µM | –
47 | O=C(Cc1nc2ccccc2c(=O)n1-c1ccccc1Cl)c1ccncc1 | > 100 µM | –
48 | CC(C)(C)c1cc(C(O)(C(F)(F)F)C(F)(F)F)c2c(c1)C(C(F)(F)F)(C(F)(F)F)OC(C)(C(C)(C)C)N2 (centres undefined) | 40.3 µM | –

Row | Compound | TGI | GI50
49 | CC(C)(C)OC(=O)NC1CC2(C=C(Br)C(=O)C(Br)=C2)OC1=O (centres undefined) | > 95.5 µM | –
50 | COc1ccc(S(=O)(=O)N2CCN(C(=O)c3ccc(-c4ccccc4)cc3)CC2C(=O)NO)cc1 (centres undefined) | 12.5 µM and > 100 µM | 2.97 µM and 19.9 µM
51 | NCCSSCCN | > 100 µM | –
52 | C=CCNc1nc2c(s1)C(=O)c1ccccc1C2=O | 27.7 µM | –
53 | CC[C@@]1(O)C(=O)OCc2c1cc1n(c2=O)Cc2c-1nc1ccccc1c2/C=N\NC(=O)C1CCCN1 (some centres undefined) | > 100 µM | –
54 | O=C(N/N=C/c1cc(Cl)cc(Cl)c1[O-])c1ccccc1O.O=C(N/N=C/c1cc(Cl)cc(Cl)c1[O-])c1ccccc1O.[Co+2] | 16 µM | 0.861 µM
55 | COc1ccc(NC(=O)CSC2=C(Nc3cccc(Br)c3)C(=O)N(Cc3ccccc3)C2=O)cc1Cl | > 100 µM | 75.4 µM
56 | CCN1CCC(O)(c2ccc(Oc3ccc(F)cc3)cc2)C(C(=O)c2ccc(Oc3ccc(F)cc3)cc2)C1 (centres undefined) | 29.7 µM | –
57 | COc1ccc(C(=O)O[C@H]2[C@@H]3C=CO[C@@H](OC4OC(CO)C(O)C(O)C4O)[C@@H]3[C@@]3(CO)O[C@@H]23)cc1O (some centres undefined) | > 100 µM | –
58 | CC(=N\N)/C(C)=N/N=C(C)/C(C)=N/N | > 100 µM | –
59 | O=C(O)CCC(=O)c1ccc2c(c1)C(C(=O)O)CC2 (centres undefined) | > 100 µM | –
60 | Cc1ccc(S(=O)(=O)OC2C(O)C(O)OC2C(c2cc(O)c3c(c2O)C(=O)c2ccccc2C3=O)c2cc(O)c3c(c2O)C(=O)c2ccccc2C3=O)cc1 (centres undefined) | > 10 µM | –
61 | COc1ccc(-c2cs/c(=N\N=C\c3ccc(O)cc3O)n2/N=C/c2ccc(O)cc2O)cc1 | 6.34 µM | 2.26 µM
62 | CCCCCCCCOC(=O)CC[C@@H](C)[C@H]1CC[C@H]2[C@@H]3[C@H](OC(=O)CCN)C[C@@H]4C[C@H](OC(=O)CCN)CC[C@]4(C)[C@H]3C[C@H](OC(=O)CCN)[C@]12C | 12 µM | 3.98 µM
63 | O=C1CC(c2ccccc2)C2(C(=O)NC(=S)NC2=O)C(c2ccccc2)C1 (centres undefined) | > 75 µM | –
64 | O=C(/C=C/c1ccccc1)CSc1ncn[nH]1 | > 100 µM | –
65 | COC(=O)c1cc2c3ccccc3n3c(=O)c4cc5ccc(N(S(=O)(=O)c6ccc(C)cc6)S(=O)(=O)c6ccc(C)cc6)cc5nc4c(n1)c23 | > 100 µM | > 100 µM
66 | O=C(O)c1ccc(NCn2nc(-c3ccccc3O)oc2=S)cc1 | > 100 µM | > 100 µM
67 | c1cc2c(cc1NC1=NCCO1)OCO2 | > 100 µM | –
68 | O=C(O)CCS/C(=C\C(SCCC(=O)O)c1ccc(Cl)cc1)c1ccc(Cl)cc1 (centres undefined) | > 100 µM | –
69 | COc1ccc(N=NC(C(=O)c2ccccc2)C(=O)c2ccccc2)cc1 | 75.8 µM | –
70 | CCOC(=O)c1[nH]c(-c2[nH]c(-c3[nH]c(-c4[nH]c(C(=O)OCC)c(C)c4C(=O)OCC)c(C(=O)OCC)c3C)c(C)c2C(=O)OCC)c(C(=O)OCC)c1C | > 100 µM | –
71 | Clc1ccc(C2=NN=C3C(c4ccccc4)=Nc4ccccc4N3C2)cc1 | > 37.2 µM | –
72 | CS(=O)(=O)c1nc(-c2cc3c(c(S(C)(=O)=O)n2)CCCC3)cc2c1CCCCC2 | > 100 µM | –

Row | Compound | TGI | GI50
73 | CC1CCC2(NC1)OC1CC3C4CC=C5CC(O)CCC5(C)C4CCC3(C)C1C2C (centres undefined) | 85.3 µM and > 55.5 µM | 28.3 µM and 5.83 µM
74 | CCC1(N=[N+]=[N-])C(=O)c2ccccc2N(C)C1=O (centres undefined) | > 100 µM | –
75 | CCOC(=O)C1=C(Nc2ccc(Cl)cc2Cl)OCC1=O | > 100 µM | –
76 | Cc1ccc(NC=O)c(-c2c(N)[nH]c(=S)[nH]c2=O)c1 | > 100 µM | –
77 | Nc1ccccc1C#C/C=C\C#Cc1ccc(OCCCNC(=O)c2cc3ccccc3[nH]2)cc1 | 91.2 µM | 16 µM
78 | O=[N+]([O-])c1cc(Cl)c2[nH]c3c(Cl)cc([N+](=O)[O-])cc3c2c1 | > 100 µM | 0.599 µM
79 | Nc1[nH]nc(Nc2ccc(Cl)cc2)c1P(=O)(c1ccccc1)c1ccccc1 | > 100 µM | –
80 | CCCC(CCC(N)=O)(CCC(N)=O)[N+](=O)[O-] | > 100 µM | –
81 | CC(C)(C)OC(=O)N(CCCCNC(=O)OCc1ccccc1)CCCNC(=O)OCc1ccccc1 | > 100 µM | –
82 | CC(C)c1cnn2c(NCc3ccccc3)cc(NC[C@H]3CCNC[C@@H]3O)nc12 | 10.2 µM and 9.81 µM | 0.637 µM and 0.494 µM
83 | COc1ccc(-n2c(N)c(C#N)[nH]c2=O)cc1 | > 10 µM | –
84 | CC(Oc1ccc2c(-c3ccccc3)cc(=O)oc2c1)C(=O)O (centres undefined) | > 100 µM | –
85 | Cc1ccc2c(c1)C(=O)c1nc(C)ccc1C2=O | 63.7 µM | –
86 | CCC1CC2C(=O)N(c3ccccc3)C(=O)C2c2[nH]c3ccccc3c21 (centres undefined) | > 100 µM | –
87 | CC(C)Nc1cc(-c2c[nH]c(C(=O)N[C@H](CO)c3cccc(Cl)c3)c2)c(Cl)cn1 | 16.6 µM and > 10 µM | 0.824 µM and 0.716 µM
88 | [O-][N+](=Nc1ccccc1CO)c1ccccc1CO | > 100 µM | –
89 | CC[C@H](Nc1ncnc2nc[nH]c12)c1nc2cccc(F)c2c(=O)n1-c1ccccc1 | 98.1 µM | 13.6 µM
90 | CC(NC(=O)NC(C)(C)C)NC(=O)C(N)CC(=O)O (centres undefined) | > 100 µM | –
91 | CC1=NC2=Nc3nc(C)cc[n+]3CN2C=C1 | > 100 µM | –
92 | CC(=O)c1c(C)nc(SSc2nc(C)c(C(C)=O)c(-c3ccc(Cl)cc3)c2C#N)c(C#N)c1-c1ccc(Cl)cc1 | > 150 µg/mL | 121 µg/mL
93 | O=C(O)C(O)C(O)C(=O)O (centres undefined) | > 100 µM | –
94 | CC1(C)OC2[C@@H](CO[C@@]3([C@@H](O)CCO)OC(C)(C)O[C@@H]23)O1 (some centres undefined) | > 100 µM | –

From PubChem BioAssay (NCI)
